Each block holds one binder with its values, some of them ahead of it.
Molecular target: hPD-L1 (form in the Octet assay of Example 3 not stated) (human, UniProt Q9NZQ7 in part, limits assumed)
Assay: BLI, Fortebio Octet; format not stated

Chain of UniProt Q9NZQ7 (Q9NZQ7 19-238 limits assumed): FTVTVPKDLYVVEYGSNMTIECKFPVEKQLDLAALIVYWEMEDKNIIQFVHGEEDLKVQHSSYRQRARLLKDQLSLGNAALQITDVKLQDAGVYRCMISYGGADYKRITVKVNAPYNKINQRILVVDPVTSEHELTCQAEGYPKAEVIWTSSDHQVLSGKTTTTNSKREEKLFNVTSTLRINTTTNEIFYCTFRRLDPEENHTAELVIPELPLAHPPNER

- Kd: 0.348 nM
- koff: 0.000243 s⁻¹
- kon: 698000 M⁻¹ s⁻¹
B1: anti-PD-L1 scFv-hFc Wt (Fc fusion)
chain: QVQLVQSGAEVKKPGASVKVSCKASGFNIKDTYMYWVRQAPGQGLEWMGRIDPANDNTKYAQKFQGRVTITADTSTSTAYMELSSLRSEDTAVYYCARAKNLLNYFDYWGQGTLVTVSSGSTSGSGKPGSGEGSTKGDIQMTQSPSSLSASVGDRVTITCRASQEISGYLSWLQQKPGKAPKRLIYATSTLQSGVPSRFSGSRSGTDYTLTISSLQPEDFATYYCLQYAIYPLTFGQGTKLEIKR[human IgG1 Fc skipped]
notes: scFv (VH-linker-VL), then hinge and wild type human IgG1 CH2-CH3; Made in ExPi 293 cells and purified on protein G; also called hPD-L1 scFv-hFc wt; scFv-HuFc(Wt)

- Kd: 0.232 nM
- koff: 0.000385 s⁻¹
- kon: 1.66e+06 M⁻¹ s⁻¹
B2: anti-PD-L1 scFv-hFc Mt (Fc fusion)
chain: QVQLVQSGAEVKKPGASVKVSCKASGFNIKDTYMYWVRQAPGQGLEWMGRIDPANDNTKYAQKFQGRVTITADTSTSTAYMELSSLRSEDTAVYYCARAKNLLNYFDYWGQGTLVTVSSGSTSGSGKPGSGEGSTKGDIQMTQSPSSLSASVGDRVTITCRASQEISGYLSWLQQKPGKAPKRLIYATSTLQSGVPSRFSGSRSGTDYTLTISSLQPEDFATYYCLQYAIYPLTFGQGTKLEIKR[human IgG1 Fc with changes skipped]
notes: As scFv-hFc Wt, with H310A and H435Q in CH2-CH3; also called hPD-L1 scFv-hFc Mt; scFv-HuFc(Mt)

— patent US20210213145A1 (TAYU HUAXIA BIOTECH MEDICAL GROUP, published 2021)
